# Measurements reported in PubChem BioAssay AID504832 (National Center for Advancing Translational Sciences (NCATS), 2011).
# The campaign covered roughly 310,000 compounds. About 18,000 (5.8%) were called active. The inconclusive results got no clear call from the source; some entries with a clear call stand among them for comparison. Calls follow the shape of the dose curve; as a rule, active = well fitted inhibition curve with a large enough effect; inconclusive = small, poorly fitted or top-dose-only effect, or another doubt; inactive = no such curve, though single readings can be large or run the other way. Potencies of inconclusive entries are left out as doubtful fits.
# Test: Primary qHTS for delayed death inhibitors of the malarial parasite plastid, 48 hour incubation
# Settings: P. falciparum luciferase growth in erythrocytes; series mostly up to 28.7 µM; activity change, negative = inhibition: at the top concentration
# Procedure, shortened: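 Compounds are pin-transferred into medium, infected erythrocytes (2% hematocrit, 0.1% parasitemia final) are added, and plates sit one parasite generation at 37 C in 5% CO2. Detection reagent is then added and luminescence measured.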
# % is scaled to controls: 0 for no effect and ±100 for the full control effect; potency is read from the fitted curve at half-maximal effect; tags tell the direction and shape of the fitted curve.
Compound,"activity change, negative = inhibition",Potency
O=C(Nc1ccc(OCC(F)(F)C(F)F)cc1)c1ccncc1,inactive: 15.4%,
CC(C)C(=O)Nc1cccc(NC(=S)NC(=O)c2ccc([N+](=O)[O-])cc2)c1,inactive: 1.59%,
O=C(N/N=C/c1cn(-c2ccccc2)nc1-c1cccnc1)c1ccccc1,,"inconclusive [inhibitor, full curve]"
Cc1cc2oc(=O)cc(CN3CCCc4ccccc43)c2cc1C,,"inconclusive [inhibitor, single point]"
COc1ccc(Oc2c(O)c3ccccc3n(C)c2=O)cc1,inactive: 23.8%,
CN(C)c1ccc(/C=C(/NC(=O)c2ccccc2)C(=O)N/N=C/c2ccc([N+](=O)[O-])c(O)c2)cc1,,active: 13.1 µM
Cc1nn(-c2ccc(Cl)cc2)c2[nH]c(=O)c(CNCc3ccc4c(c3)OCO4)cc12,,active: 0.37 µM
Cc1ccc(O)c(C(=O)c2cc(C#N)c(=O)n(C(C)c3ccccc3)c2)c1 (stereo unspecified),,active: 3.29 µM
CCOC(=O)c1cc2c(=O)[nH]ccc2nc1C,inactive: 5.53%,
CCOC(=O)C(O)C1CCc2c([nH]c3ccc(C)cc23)C1=O (stereo unspecified),,"inconclusive [inhibitor, single point]"
CC(C)C[C@H]1CNC(=O)C(=O)N1C[C@H](C)NC(=O)Cc1ccccc1,inactive: -28.7%,
CCCCc1ncc(CN2CCC(n3nccc3NC(=O)c3ccccc3OC)CC2)[nH]1,,"inconclusive [inhibitor, single point]"
CC(C)(C)C(=O)N1CCN(C(=O)c2ccco2)CC1,inactive: 13.6%,
CCCCCCCC(O)CC(CC1CCCCC1)C(=O)NN (stereo unspecified),,"inconclusive [inhibitor, single point]"
COc1cc(CN(C)Cc2nc3cc(C(F)(F)F)ccc3c(=O)[nH]2)ccc1OC(F)F,,"inconclusive [inhibitor, partial curve, poor fit]"
O=C(NCCCN1CCOCC1)c1cc(-c2ccccc2F)no1,inactive: 36.9%,
Cc1cccc(Oc2ncnc3onc(C)c23)c1C,,"inconclusive [inhibitor, single point]"
CC(C)c1ccccc1NC(=O)C1CN(S(=O)(=O)c2ccccc2)CCN1S(=O)(=O)c1ccccc1 (stereo unspecified),,"inconclusive [inhibitor, single point]"
Cc1ccc(S(=O)(=O)Oc2ccccc2/C=N/N=C(N)N)cc1,,"inconclusive [inhibitor, single point]"
CCOc1ccc(Nc2ncnc3c2cnn3Cc2ccccc2)cc1,,"inconclusive [inhibitor, partial curve]"
OC(CN1CC=C(c2ccccc2)CC1)c1ccccc1 (stereo unspecified),,"inconclusive [inhibitor, single point]"
